Source: the BET-seq Pho4 binding data (Le et al. 2018)
The other results are listed elsewhere or left out. Values were computed here from the reads of four pooled replicates and scatter widely.

molecular target: T1, Pho4 (S. cerevisiae) (UniProt P07270); test: relative binding free energy (BET-seq); higher = weaker binding; conditions: reference: library average
T1 sequence: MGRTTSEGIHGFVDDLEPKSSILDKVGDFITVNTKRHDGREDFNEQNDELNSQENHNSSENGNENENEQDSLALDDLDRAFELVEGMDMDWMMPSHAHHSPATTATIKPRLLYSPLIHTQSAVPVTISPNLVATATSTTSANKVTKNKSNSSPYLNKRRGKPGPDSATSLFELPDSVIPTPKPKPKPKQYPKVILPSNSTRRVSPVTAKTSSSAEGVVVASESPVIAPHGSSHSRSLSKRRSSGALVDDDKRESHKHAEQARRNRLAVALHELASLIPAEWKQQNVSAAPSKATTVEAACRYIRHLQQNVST

Sequence | relative binding free energy
GTAGCCACGTGTTTTG | -0.06 kcal/mol
GGGGCCACGTGGAGTG | 0.02 kcal/mol
ATATTCACGTGTTGGT | 0.25 kcal/mol
TGCGGCACGTGCGGTT | -0.13 kcal/mol
ATCTTCACGTGTTAAT | 0.32 kcal/mol
TAATTCACGTGGGTTG | 0.17 kcal/mol
ATTATCACGTGCTGTA | 0.07 kcal/mol
AGTTCCACGTGTATTT | 0.06 kcal/mol
GTTAACACGTGTTGGA | 0.16 kcal/mol
ATGTTCACGTGATAAT | 0.13 kcal/mol
CACGGCACGTGGTGTG | -0.06 kcal/mol
AGGCTCACGTGTGATT | 0.31 kcal/mol
GGGTCCACGTGGGCAT | -0.03 kcal/mol
CTTGTCACGTGAGTTA | 0.4 kcal/mol
ACGGTCACGTGTTGAA | 0.1 kcal/mol
TGGCTCACGTGGCAGG | 0.02 kcal/mol
GTTGACACGTGTTTCT | 0.14 kcal/mol
TGGCGCACGTGGTGGT | -0.08 kcal/mol
TTTTACACGTGGACGT | 0.09 kcal/mol
TTCGTCACGTGGTCAT | 0.04 kcal/mol
ACTGTCACGTGGAGGG | 0.01 kcal/mol
GCTTTCACGTGAGGGA | 0.4 kcal/mol
TACGGCACGTGCGGGG | -0.07 kcal/mol
TTAGACACGTGGGGCA | -0.13 kcal/mol
CTTTGCACGTGAGGGT | 0.27 kcal/mol

Sequence | relative binding free energy
TTCTCCACGTGTTGGG | 0.09 kcal/mol
GGTATCACGTGTGCGC | 0.18 kcal/mol
GGCGGCACGTGTGATT | 0.1 kcal/mol
CTGGGCACGTGCGTTA | -0.11 kcal/mol
ATTTACACGTGTTGTG | 0.13 kcal/mol
GAACGCACGTGTGGAG | 0.09 kcal/mol
TGCATCACGTGGGTGT | -0.14 kcal/mol
TATGTCACGTGTAAGG | 0.18 kcal/mol
GGGGCCACGTGAAAGG | 0.14 kcal/mol
TAATGCACGTGTAGAT | 0.21 kcal/mol
TTGGCCACGTGAGGCG | 0.22 kcal/mol
TGAGTCACGTGTCCGT | 0.2 kcal/mol
CTATTCACGTGATGTT | 0.22 kcal/mol
ATGTTCACGTGTAGCG | 0.23 kcal/mol
CGGGACACGTGTATGT | 0.05 kcal/mol
GCTTGCACGTGTTGAG | 0.03 kcal/mol
TTCGTCACGTGTGTCT | 0.04 kcal/mol
GGTTACACGTGAGTGC | 0.41 kcal/mol
TCGTGCACGTGTGATG | 0 kcal/mol
GTGGTCACGTGATGTG | 0.27 kcal/mol
TTGGGCACGTGTATAA | -0.14 kcal/mol
GTACTCACGTGGTGTG | 0.07 kcal/mol
ATAGCCACGTGGTAGG | -0.22 kcal/mol
TGTGACACGTGTATTG | 0.02 kcal/mol
AGTAGCACGTGAGTCG | 0.16 kcal/mol

Sequence | relative binding free energy
TTAAGCACGTGGGTAG | -0.32 kcal/mol
TCGGTCACGTGTTCAG | 0.37 kcal/mol
GGTGTCACGTGGGTAT | 0.08 kcal/mol
TGAAGCACGTGGTTGA | -0.09 kcal/mol
CTTGTCACGTGTGGCT | 0.04 kcal/mol
ATGGGCACGTGGGGCT | -0.22 kcal/mol
CTTTACACGTGTAGTA | 0.08 kcal/mol
GTTAACACGTGGGTAG | -0.07 kcal/mol
TTGGGCACGTGTACTC | 0.07 kcal/mol
ATGGGCACGTGTTCTA | -0.22 kcal/mol
GATTGCACGTGTGTTA | 0.11 kcal/mol
TGAGTCACGTGGACAG | 0.17 kcal/mol
TACAGCACGTGGTGTA | -0.12 kcal/mol
GTTCGCACGTGTGCGG | -0.06 kcal/mol
TGAGGCACGTGTCGCG | -0.03 kcal/mol
ATTTACACGTGTCATG | 0.07 kcal/mol
GAAGACACGTGGGGGC | -0.05 kcal/mol
AGCATCACGTGTTGTT | 0.04 kcal/mol
GTAGGCACGTGGAAGC | -0.05 kcal/mol
TGCTTCACGTGGTCTT | 0.29 kcal/mol
TTTGACACGTGAATCG | 0.3 kcal/mol
GGGCGCACGTGCTGTT | -0.18 kcal/mol
GAATTCACGTGTTGAG | 0.51 kcal/mol
ATTGTCACGTGGTCGT | -0.09 kcal/mol
TGGTGCACGTGAGGAC | 0.19 kcal/mol

Sequence | relative binding free energy
AGAAACACGTGGTGGA | 0.04 kcal/mol
ATATTCACGTGAGTAA | 0.42 kcal/mol
GGGTTCACGTGCATTT | 0.44 kcal/mol
ATAAGCACGTGGGCTA | -0.2 kcal/mol
TAGAACACGTGGGGAT | -0.03 kcal/mol
AGATGCACGTGCGAGT | -0.07 kcal/mol
TTGTGCACGTGGGATA | -0.1 kcal/mol
TGGTGCACGTGGGCAA | -0.07 kcal/mol
CATAGCACGTGAAGGG | 0.25 kcal/mol
TAAGGCACGTGCGGGT | -0.26 kcal/mol
GTTATCACGTGCAGGG | 0.05 kcal/mol
TAGTACACGTGGGATT | 0.03 kcal/mol
CAGTTCACGTGGGGAT | 0.16 kcal/mol
ACGTGCACGTGAGGGA | 0.1 kcal/mol
GTGCGCACGTGGGGAG | -0.12 kcal/mol
GAGGCCACGTGCGGTT | 0.02 kcal/mol
TGATTCACGTGATTGC | 0.35 kcal/mol
CGTCGCACGTGTGGTA | -0.09 kcal/mol
TTGGACACGTGAAGAA | 0.33 kcal/mol
AATGTCACGTGTGTAC | 0.32 kcal/mol
TCTAGCACGTGTTGGG | -0.02 kcal/mol
GTTGGCACGTGCATAG | -0.25 kcal/mol
ATCTGCACGTGTAAGG | 0.1 kcal/mol
AATTGCACGTGTTACT | 0.01 kcal/mol
GGTTGCACGTGGATGG | 0.04 kcal/mol

Sequence | relative binding free energy
GATGTCACGTGGAGAT | 0 kcal/mol
AAAGTCACGTGGTCTT | 0.04 kcal/mol
GAAAGCACGTGGGTTG | -0.15 kcal/mol
CTGGGCACGTGTCGAG | -0.03 kcal/mol
GTGTGCACGTGGTGTA | 0.02 kcal/mol
TTAGTCACGTGCAAGG | 0.11 kcal/mol
CGGTCCACGTGCGGGG | -0.2 kcal/mol
ATAGGCACGTGGTTGA | -0.22 kcal/mol
TGGTTCACGTGCGAGT | 0.25 kcal/mol
TAGCACACGTGTAGGT | 0.27 kcal/mol
ATCTGCACGTGATAGG | 0.12 kcal/mol
GTGGTCACGTGTAGCG | 0.24 kcal/mol
GTGTTCACGTGATGCA | 0.32 kcal/mol
TGTTGCACGTGCGGTA | 0.04 kcal/mol
TTTTACACGTGGTACT | 0.18 kcal/mol
AGGTCCACGTGTTTAA | 0.15 kcal/mol
GGAGGCACGTGGTGTC | -0.22 kcal/mol
GGACGCACGTGCATGG | 0.05 kcal/mol
GTAAGCACGTGAATGT | 0.29 kcal/mol
CGGCGCACGTGGGTGC | -0.33 kcal/mol
TGTAACACGTGGTCAT | -0.05 kcal/mol
TGTAACACGTGTAACG | 0.18 kcal/mol
ATGTACACGTGGAGCT | 0.06 kcal/mol
AGGGTCACGTGGATTG | 0.15 kcal/mol
GTACGCACGTGGATGG | -0.1 kcal/mol

Sequence | relative binding free energy
TGAATCACGTGTCAGG | 0.21 kcal/mol
GTCTACACGTGTTGTG | 0.12 kcal/mol
CGCGGCACGTGAGTGG | 0.05 kcal/mol
TGAAACACGTGGTGGT | -0.12 kcal/mol
TTTTACACGTGTTCGA | 0.07 kcal/mol
ACGGTCACGTGTTTTT | 0.16 kcal/mol
GGTAGCACGTGTCGTG | -0.06 kcal/mol
CTTTACACGTGATGTT | 0.14 kcal/mol
AAGGGCACGTGCGGTA | -0.28 kcal/mol
GATGGCACGTGCTTGT | -0.16 kcal/mol
CGTTGCACGTGCCGGG | -0.22 kcal/mol
ATTTGCACGTGGTGTG | -0.1 kcal/mol
GAGGCCACGTGTTGGG | 0.01 kcal/mol
GGATTCACGTGGGGCA | 0.21 kcal/mol
TTCATCACGTGGGGTC | 0.13 kcal/mol
GGGAGCACGTGTGCTG | -0.11 kcal/mol
GGTCGCACGTGAGCTG | 0.24 kcal/mol
GTAGGCACGTGGTTTC | -0.16 kcal/mol
AGTGTCACGTGATCGT | 0.14 kcal/mol
TAGATCACGTGTAGAG | 0.18 kcal/mol
CTTATCACGTGGGTTA | 0.08 kcal/mol
